Reference: patent publication US8044100B2, “Methods and compositions for treating amyloid-related diseases” (Bellus Health Inc., priority 2004, dated 2011)
Some of these results come from one statement about several compounds together.

Biological target: Aβ40 (Homo sapiens, UniProt P05067)
Test: Mass spectrometry (MS) assay for binding to soluble Aβ40
Conditions: @ 200 μM test compound and 20 μM solubilized Aβ40, pH 7.4; class limits; compounds tested at 200 or 400 μM

Sequence of Aβ40 (P05067 672-711 limits assumed): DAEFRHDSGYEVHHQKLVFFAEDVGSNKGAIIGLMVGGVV

SMILES	Aβ binding (%)
CC(CCNC(C)(C)C)S(=O)(=O)O (stereo not shown) [ES]	60-100% @ 200 μM
O=S(=O)(O)CCCNCC(c1ccccc1)c1ccccc1 [ET]	60-100% @ 200 μM
O=S(=O)(O)CCCNCC12CC3CC(CC(C3)C1)C2 [EY]	60-100% @ 200 μM
CC(NCCCS(=O)(=O)O)C12CC3CC(CC(C3)C1)C2 (stereo not shown) [EZ]	60-100% @ 200 μM
COc1ccc2[nH]cc(CCNCCCS(=O)(=O)O)c2c1 [FA]	60-100% @ 200 μM
[N-]=[N+]=NCCCS(=O)(=O)[O-].[Na+] [FH]	20-39% @ 400 μM
O=C(NO)[C@H](Cc1ccccc1)NCCCS(=O)(=O)O [FO]	20-39% @ 400 μM
CCC(C)(CC)NCCCS(=O)(=O)O [FP, 3-[(1-ethyl-1-methylpropyl)amino]-1-propanesulfonic acid]	30-69% @ 200 μM
CC1(NCCCS(=O)(=O)O)CCCC1 [FQ, 3-[(1-methylcyclopentyl)amino]-1-propanesulfonic acid]	20-44% @ 200 μM
CC1(NCCCS(=O)(=O)O)CCCCC1 [FR, 3-[(1-methylcyclohexyl)amino]-1-propanesulfonic acid]	30-69% @ 200 μM
CC1(NCCCS(=O)(=O)O)CCCCCC1 [FS, 3-[(1-methylcycloheptyl)amino]-1-propanesulfonic acid]	60-100% @ 200 μM
COC(=O)[C@@H](NCCCS(=O)(=O)O)C(C)C [FT, 3-{[(1S)-1-(methoxycarbonyl)-2-methylpropyl]amino}-1-propanesulfonic acid]	20-39% @ 400 μM
C[C@@H](NCCCS(=O)(=O)O)C1CCCCC1 [FU, 3-{[(1R)-1-cyclohexylethyl]amino}-1-propanesulfonic acid]	30-69% @ 200 μM
C[C@H](NCCCS(=O)(=O)O)C(N)=O [FV]	20-39% @ 400 μM
C[C@H](NCCCS(=O)(=O)O)C1CCCCC1 [FW, 3-{[(1S)-1-cyclohexylethyl]amino}-1-propanesulfonic acid]	20-39% @ 400 μM
CC(C)(C)C1CCC(NCCCS(=O)(=O)O)CC1 (stereo not shown) [FX, 3-[(4-tert-butylcyclohexyl)amino]-1-propanesulfonic acid]	60-100% @ 200 μM
O=S(=O)(O)CCCN[C@H]1CCC[C@@H]1OCc1ccccc1 [FY, 3-{[(1S,2S)-2-(benzyloxy)cyclopentyl]amino}-1-propanesulfonic acid]	60-100% @ 200 μM
O=S(=O)(O)CCCN[C@@H]1CCC[C@H]1OCc1ccccc1 [FZ, 3-{[(1R,2R)-2-(benzyloxy)cyclopentyl]amino}-1-propanesulfonic acid]	20-44% @ 200 μM
O=S(=O)(O)CCCN1CC=C(c2ccc(F)cc2)CC1 [F]	20-44% @ 200 μM
O=C(NC1CCCCC1)[C@H](Cc1ccccc1)NCCCS(=O)(=O)O [GA, 3-{[(1S)-1-benzyl-2-(cyclohexylamino)-2-oxoethyl]amino}-1-propanesulfonic acid]	20-39% @ 400 μM
CC(C)[C@H](NCCCS(=O)(=O)O)C(=O)O [GC, (2S)-3-methyl-2-[(3-sulfopropyl)amino]butanoic acid]	20-39% @ 400 μM
COC(=O)[C@H](CC(C)C)NCCCS(=O)(=O)O [GH, 3-{[(1S)-1-(methoxycarbonyl)-3-methylbutyl]amino}-1-propanesulfonic acid]	20-44% @ 200 μM
CC(C)C[C@@H](CO)NCCCS(=O)(=O)O [GJ, 3-{[(1S)-1-(hydroxymethyl)-3-methylbutyl]amino}-1-propanesulfonic acid]	30-69% @ 200 μM
CCC(C)[C@@H](CO)NCCCS(=O)(=O)O (stereo partly drawn) [GK, 3-{[(1S)-1-(hydroxymethyl)-2-methylbutyl]amino}-1-propanesulfonic acid]	20-44% @ 200 μM
CC(C)C[C@H](CO)NCCCS(=O)(=O)O [GL, 3-{[(1R)-1-(hydroxymethyl)-3-methylbutyl]amino}-1-propanesulfonic acid]	30-69% @ 200 μM
COC(=O)[C@@H](NCCCS(=O)(=O)O)C(C)(C)C [GM]	20-39% @ 400 μM
NC(=O)[C@@H](NCCCS(=O)(=O)O)c1ccccc1 [GN, 3-{[(1S)-2-amino-2-oxo-1-phenylethyl]amino}-1-propanesulfonic acid]	20-39% @ 400 μM
C[C@H](NCCCS(=O)(=O)O)C(=O)OC(C)(C)C [GO, 3-{[(1S)-2-tert-butoxy-1-methyl-2-oxoethyl]amino}-1-propanesulfonic acid]	20-39% @ 400 μM
C[C@H](NCCCS(=O)(=O)O)C(=O)O [GQ, (2S)-2-[(3-sulfopropyl)amino]propanoic acid]	20-39% @ 400 μM

Same assay, conditions: @ 400 μM test compound and 40 μM solubilized Aβ40, pH 7.4; class limits; compounds tested at 200 or 400 μM

SMILES	Aβ binding (%)
CC(CCNC(C)(C)C)S(=O)(=O)O (stereo not shown) [ES]	90-100% @ 400 μM;
O=S(=O)(O)CCCNCC(c1ccccc1)c1ccccc1 [ET]	90-100% @ 400 μM;
O=S(=O)(O)CCCNCC12CC3CC(CC(C3)C1)C2 [EY]	90-100% @ 400 μM;
CC(NCCCS(=O)(=O)O)C12CC3CC(CC(C3)C1)C2 (stereo not shown) [EZ]	90-100% @ 400 μM;
COc1ccc2[nH]cc(CCNCCCS(=O)(=O)O)c2c1 [FA]	90-100% @ 400 μM;
[N-]=[N+]=NCCCS(=O)(=O)[O-].[Na+] [FH]	20-39% @ 400 μM
O=C(NO)[C@H](Cc1ccccc1)NCCCS(=O)(=O)O [FO]	20-39% @ 400 μM
CCC(C)(CC)NCCCS(=O)(=O)O [FP, 3-[(1-ethyl-1-methylpropyl)amino]-1-propanesulfonic acid]	70-89% @ 400 μM;
CC1(NCCCS(=O)(=O)O)CCCC1 [FQ, 3-[(1-methylcyclopentyl)amino]-1-propanesulfonic acid]	45-59% @ 400 μM;
CC1(NCCCS(=O)(=O)O)CCCCC1 [FR, 3-[(1-methylcyclohexyl)amino]-1-propanesulfonic acid]	70-89% @ 400 μM;
CC1(NCCCS(=O)(=O)O)CCCCCC1 [FS, 3-[(1-methylcycloheptyl)amino]-1-propanesulfonic acid]	90-100% @ 400 μM;
COC(=O)[C@@H](NCCCS(=O)(=O)O)C(C)C [FT, 3-{[(1S)-1-(methoxycarbonyl)-2-methylpropyl]amino}-1-propanesulfonic acid]	20-39% @ 400 μM
C[C@@H](NCCCS(=O)(=O)O)C1CCCCC1 [FU, 3-{[(1R)-1-cyclohexylethyl]amino}-1-propanesulfonic acid]	70-89% @ 400 μM;
C[C@H](NCCCS(=O)(=O)O)C(N)=O [FV]	20-39% @ 400 μM
C[C@H](NCCCS(=O)(=O)O)C1CCCCC1 [FW, 3-{[(1S)-1-cyclohexylethyl]amino}-1-propanesulfonic acid]	20-39% @ 400 μM
CC(C)(C)C1CCC(NCCCS(=O)(=O)O)CC1 (stereo not shown) [FX, 3-[(4-tert-butylcyclohexyl)amino]-1-propanesulfonic acid]	90-100% @ 400 μM;
O=S(=O)(O)CCCN[C@H]1CCC[C@@H]1OCc1ccccc1 [FY, 3-{[(1S,2S)-2-(benzyloxy)cyclopentyl]amino}-1-propanesulfonic acid]	90-100% @ 400 μM;
O=S(=O)(O)CCCN[C@@H]1CCC[C@H]1OCc1ccccc1 [FZ, 3-{[(1R,2R)-2-(benzyloxy)cyclopentyl]amino}-1-propanesulfonic acid]	45-59% @ 400 μM;
O=S(=O)(O)CCCN1CC=C(c2ccc(F)cc2)CC1 [F]	45-59% @ 400 μM;
O=C(NC1CCCCC1)[C@H](Cc1ccccc1)NCCCS(=O)(=O)O [GA, 3-{[(1S)-1-benzyl-2-(cyclohexylamino)-2-oxoethyl]amino}-1-propanesulfonic acid]	20-39% @ 400 μM
CC(C)[C@H](NCCCS(=O)(=O)O)C(=O)O [GC, (2S)-3-methyl-2-[(3-sulfopropyl)amino]butanoic acid]	20-39% @ 400 μM
COC(=O)[C@H](CC(C)C)NCCCS(=O)(=O)O [GH, 3-{[(1S)-1-(methoxycarbonyl)-3-methylbutyl]amino}-1-propanesulfonic acid]	45-59% @ 400 μM;
CC(C)C[C@@H](CO)NCCCS(=O)(=O)O [GJ, 3-{[(1S)-1-(hydroxymethyl)-3-methylbutyl]amino}-1-propanesulfonic acid]	70-89% @ 400 μM;
CCC(C)[C@@H](CO)NCCCS(=O)(=O)O (stereo partly drawn) [GK, 3-{[(1S)-1-(hydroxymethyl)-2-methylbutyl]amino}-1-propanesulfonic acid]	45-59% @ 400 μM;
CC(C)C[C@H](CO)NCCCS(=O)(=O)O [GL, 3-{[(1R)-1-(hydroxymethyl)-3-methylbutyl]amino}-1-propanesulfonic acid]	70-89% @ 400 μM;
COC(=O)[C@@H](NCCCS(=O)(=O)O)C(C)(C)C [GM]	20-39% @ 400 μM
NC(=O)[C@@H](NCCCS(=O)(=O)O)c1ccccc1 [GN, 3-{[(1S)-2-amino-2-oxo-1-phenylethyl]amino}-1-propanesulfonic acid]	20-39% @ 400 μM
C[C@H](NCCCS(=O)(=O)O)C(=O)OC(C)(C)C [GO, 3-{[(1S)-2-tert-butoxy-1-methyl-2-oxoethyl]amino}-1-propanesulfonic acid]	20-39% @ 400 μM
C[C@H](NCCCS(=O)(=O)O)C(=O)O [GQ, (2S)-2-[(3-sulfopropyl)amino]propanoic acid]	20-39% @ 400 μM
